Results as given in the supplement of paper PMC12217912.
The other results are listed elsewhere or left out. Sequences were assembled here from the parent chain. Values near 0.05 are background.

B1: TEV protease; numbered along this chain (parent)
chain: MGESLFKGPRDYNPISSSICHLTNESDGHTTSLYGIGFGPFIITNKHLFRRNNGTLVVQSLHGVFKVKDTTTLQQHLVDGRDMIIIRMPKDFPPFPQKLKFREPQREERICLVTTNFQTKSMSSMVSDTSCTFPSGDGIFWKHWIQTKDGQCGSPLVSTRDGFIVGIHSASNFTNTNNYFTSVPKNFMELLTNQEAQQWVSGWRLNADSVLWGGHKVFMVKPEEPFQPVKEATQL

Variants of: B1
Assay: raw area under fraction-flipped curve 0-4 h after induction (AUC4h, not background-subtracted), DNA-recorder readout of cleavage of the substrate (dimensionless); higher = more cleavage of the substrate by the protease variant
Settings: temperature: 34 °C; time window: 0-4 h after rhamnose induction
Method: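 In vivo DNA recorder in E. coli TOP10(DE3) ΔrhaA at 34 °C. Each TEVp single-site mutant (parent TEVp 0) is paired with a single-site variant of the 7-mer TEVs (canonical ENLYFQ|S). The substrate sits between flexible linkers in a Bxb1-sfGFP-TEVs-SsrA fusion, so cleavage stabilises Bxb1 and speeds flipping of a recombination array, read by NGS. The value is the raw area under the fraction-flipped curve over 0-4 h after rhamnose induction (AUC4h), with ≥20 reads per time point. It is not background-subtracted; inactive controls average about 0.047.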
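Note: Bxb1 expression induced with 0.2% (w/v) L-rhamnose at OD600 near 0.5, cultures sampled hourly, flipped fraction per protease–substrate barcode pair counted by paired-end Illumina sequencing.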

Row | Variant | area with substrate CNLYFQS | area with substrate HNLYFQS | area with substrate LNLYFQS | area with substrate MNLYFQS | area with substrate PNLYFQS | area with substrate SNLYFQS | area with substrate TNLYFQS | area with substrate WNLYFQS | area with substrate YNLYFQS | area with substrate KNLYFQS | area with substrate NNLYFQS | area with substrate GNLYFQS | area with substrate INLYFQS | area with substrate FNLYFQS | area with substrate QNLYFQS | area with substrate VNLYFQS | area with substrate RNLYFQS | area with substrate DNLYFQS
1 | K230G | 0.0738 | 0.0674 | 0.0588 | 0.0667 | 0.0678 | 0.0653 | 0.085 | 0.054 | 0.0654 |  |  |  |  |  |  |  |  | 
2 | A232P | 0.0747 |  | 0.0565 | 0.09 | 0.0877 | 0.0721 |  | 0.051 |  | 0.064 | 0.0736 |  |  |  |  |  |  | 
3 | T72P |  | 0.0401 |  |  | 0.0631 |  | 0.0574 | 0.0324 |  |  | 0.0551 | 0.0688 | 0.0949 |  |  |  |  | 
4 | T233S | 0.0769 | 0.0756 | 0.065 | 0.0577 | 0.104 | 0.0711 | 0.0659 | 0.0883 | 0.0622 |  | 0.0636 |  |  | 0.057 |  |  |  | 
5 | T233D | 0.0575 | 0.054 | 0.0514 |  | 0.0663 |  | 0.0614 | 0.068 | 0.072 | 0.0709 |  |  | 0.0496 |  | 0.0633 |  |  | 
6 | T176L |  | 0.0529 | 0.0524 | 0.0646 | 0.0586 | 0.0635 | 0.0596 | 0.0571 | 0.0516 |  |  | 0.0505 |  | 0.0602 | 0.0448 |  |  | 
7 | R160A |  |  |  |  | 0.0756 | 0.0696 | 0.0573 | 0.0722 | 0.0648 |  |  | 0.0677 | 0.0588 | 0.0768 | 0.0654 | 0.0671 |  | 
8 | T192Y |  |  |  |  | 0.0792 |  | 0.0584 | 0.0649 | 0.0334 |  |  |  |  | 0.0565 |  |  |  | 
9 | F218S | 0.0569 | 0.0607 |  |  | 0.072 | 0.0678 | 0.0576 | 0.0566 |  | 0.0582 | 0.0566 | 0.0478 | 0.0791 | 0.0587 | 0.0593 |  | 0.0621 | 
10 | F218H | 0.0856 |  |  | 0.0659 | 0.0782 |  | 0.0502 | 0.0502 | 0.0772 |  | 0.0581 |  | 0.0613 | 0.0492 |  |  |  | 
11 | F218G | 0.0689 |  | 0.0715 | 0.0662 | 0.0432 | 0.0592 | 0.0681 | 0.0615 | 0.0376 | 0.0881 |  |  |  |  |  |  |  | 
12 | K120L |  | 0.0452 | 0.0685 | 0.0259 | 0.0664 |  | 0.0567 | 0.0653 |  |  |  |  | 0.0642 |  |  |  |  | 
13 | P228N | 0.0654 | 0.0682 | 0.0641 | 0.0593 | 0.0613 | 0.0778 | 0.0612 |  | 0.0559 |  |  | 0.056 | 0.0693 |  |  | 0.052 |  | 
14 | K221N | 0.0657 | 0.05 | 0.0631 | 0.0543 | 0.0626 | 0.0697 | 0.0642 | 0.0594 | 0.056 |  | 0.0297 | 0.058 | 0.0665 | 0.0469 |  | 0.0585 |  | 
15 | K221T | 0.0769 | 0.0545 | 0.0528 |  |  |  | 0.0356 | 0.0602 | 0.0472 |  |  | 0.0606 |  | 0.0659 |  |  |  | 
16 | K221Y | 0.0499 | 0.0522 | 0.0486 | 0.0564 |  | 0.0652 | 0.0577 | 0.0483 | 0.0636 | 0.0606 | 0.0808 |  | 0.0689 | 0.0654 | 0.0611 | 0.0527 |  | 
17 | V229Y | 0.0682 | 0.078 |  | 0.0664 | 0.0674 | 0.0671 | 0.0605 | 0.0611 | 0.0625 | 0.0667 | 0.0552 | 0.067 |  | 0.0743 | 0.0899 | 0.065 |  | 
18 | V229H | 0.0642 | 0.0575 |  | 0.0822 | 0.0794 | 0.0734 | 0.0662 | 0.0627 | 0.0728 |  |  |  | 0.0841 |  |  | 0.0886 | 0.0454 | 
19 | V229L | 0.0687 | 0.0584 | 0.0722 | 0.0687 | 0.0657 | 0.0511 | 0.0677 | 0.0696 | 0.0615 | 0.075 | 0.0725 |  |  | 0.0604 |  | 0.0694 | 0.0639 | 
20 | V64F |  | 0.0584 |  |  |  |  |  |  |  |  |  |  |  |  |  | 0.0763 |  | 
21 | P222G | 0.0687 | 0.0328 | 0.0671 | 0.0393 | 0.0361 | 0.0699 | 0.0612 | 0.0521 | 0.0634 |  | 0.0652 |  | 0.0441 |  |  | 0.0638 |  | 
22 | P222V | 0.0641 | 0.0544 | 0.0668 | 0.0566 | 0.0666 | 0.0607 | 0.0647 | 0.0523 | 0.0638 |  | 0.0647 | 0.072 |  |  | 0.0717 |  |  | 

Row | Variant | area with substrate CNLYFQS | area with substrate HNLYFQS | area with substrate LNLYFQS | area with substrate MNLYFQS | area with substrate PNLYFQS | area with substrate SNLYFQS | area with substrate TNLYFQS | area with substrate WNLYFQS | area with substrate YNLYFQS | area with substrate KNLYFQS | area with substrate NNLYFQS | area with substrate GNLYFQS | area with substrate INLYFQS | area with substrate FNLYFQS | area with substrate QNLYFQS | area with substrate VNLYFQS | area with substrate RNLYFQS | area with substrate DNLYFQS
23 | P222M | 0.0894 |  |  | 0.0583 | 0.0699 | 0.0576 | 0.05 | 0.11 | 0.0541 | 0.08 | 0.0871 | 0.0798 |  | 0.0446 |  | 0.0507 |  | 0.0719
24 | M219R | 0.0622 | 0.0624 | 0.0549 | 0.0561 |  | 0.0556 | 0.0723 | 0.0587 | 0.0641 |  | 0.0605 | 0.0623 | 0.0588 | 0.0615 |  | 0.0525 | 0.0482 | 
25 | M219Q | 0.0561 | 0.0603 | 0.0658 | 0.0562 | 0.0595 |  | 0.0669 | 0.056 |  |  | 0.0634 | 0.0526 | 0.0495 | 0.0418 |  |  | 0.0839 | 
26 | M219D | 0.0472 | 0.0596 | 0.0568 | 0.0539 | 0.0565 | 0.0554 | 0.0631 | 0.0656 |  | 0.064 |  | 0.0615 | 0.0611 | 0.0667 | 0.0651 |  |  | 
27 | M219L | 0.0645 |  | 0.0563 | 0.0461 |  | 0.07 | 0.0594 | 0.092 |  | 0.061 |  | 0.0643 |  |  |  |  |  | 
28 | F226Y | 0.0581 | 0.0552 | 0.0645 |  |  | 0.0614 | 0.0663 | 0.0679 | 0.0669 | 0.066 |  | 0.0712 |  |  |  |  |  | 
29 | L235M | 0.063 | 0.0675 | 0.0546 | 0.0835 | 0.0682 | 0.069 |  | 0.062 | 0.0535 |  |  | 0.0616 | 0.0599 |  |  |  |  | 
30 | W144L |  | 0.063 | 0.0485 |  | 0.0772 |  | 0.0656 |  | 0.081 |  |  | 0.0738 | 0.0689 | 0.122 |  |  |  | 
31 | E223F | 0.0541 | 0.0873 | 0.0658 | 0.056 | 0.0584 | 0.0673 | 0.0952 |  | 0.0739 |  |  |  | 0.0642 |  | 0.085 |  |  | 
32 | E231M | 0.0829 | 0.0496 |  | 0.0751 | 0.0773 | 0.0897 | 0.0684 | 0.0628 | 0.0627 |  | 0.0988 |  | 0.0547 |  |  | 0.0684 |  | 
33 | E231G | 0.0728 | 0.0914 | 0.0463 | 0.0724 |  | 0.0826 | 0.0596 | 0.0556 | 0.0718 | 0.078 |  | 0.0731 | 0.04 |  |  | 0.0581 | 0.046 | 
34 | P225W | 0.0573 |  |  | 0.0795 | 0.0642 | 0.0784 |  |  | 0.0764 | 0.0826 | 0.0642 | 0.0831 | 0.0667 |  |  | 0.0599 |  | 
35 | P225T | 0.0765 | 0.046 |  | 0.0685 | 0.0531 | 0.0647 | 0.0646 | 0.0628 |  | 0.0611 |  |  | 0.0638 |  |  | 0.0661 |  | 
36 | P225R | 0.0648 | 0.04 | 0.0596 | 0.0816 | 0.0674 | 0.0691 | 0.064 | 0.0586 | 0.0538 | 0.0631 |  | 0.0606 | 0.0746 | 0.0544 | 0.0607 | 0.079 |  | 
37 | V200E |  |  |  |  | 0.09 |  | 0.0588 | 0.0843 |  |  | 0.0614 |  |  |  |  |  |  | 
38 | Q227M | 0.0682 | 0.0681 | 0.0532 |  | 0.0531 | 0.0709 | 0.072 | 0.066 | 0.0769 |  | 0.0613 | 0.083 | 0.0592 | 0.0805 |  |  |  | 
39 | Q227E | 0.0577 | 0.0528 | 0.0591 | 0.0744 | 0.0842 | 0.0611 | 0.0674 | 0.0542 |  | 0.0672 |  |  | 0.0673 | 0.0619 |  | 0.0677 |  | 
40 | Q227P | 0.0552 |  |  | 0.0635 |  | 0.0575 | 0.0712 | 0.095 | 0.0781 | 0.0579 |  | 0.0728 |  |  |  |  | 0.0619 | 
41 | E224T |  |  | 0.0668 | 0.0623 | 0.0676 | 0.104 | 0.0679 | 0.0485 |  | 0.0599 | 0.0755 | 0.0534 | 0.0653 |  |  | 0.0559 |  | 
42 | E224P | 0.0781 | 0.0712 | 0.0759 |  | 0.056 | 0.0725 | 0.0668 | 0.0547 | 0.0759 | 0.0734 | 0.0786 |  | 0.0468 | 0.0601 |  | 0.0604 |  | 
43 | E224M | 0.067 | 0.063 | 0.0601 |  | 0.0553 | 0.0678 | 0.0613 | 0.0736 | 0.0626 | 0.06 |  |  | 0.0634 |  |  |  |  | 
